Data taken from the supplement of paper PMC11417369.
± gives the standard deviation of the averaged measurements. The list shows a part of the results.

These sequences were tested on PfAP2-LT AP2 domain (GST-tagged) (assay: gcPBM binding intensity (ln(normalized median fluorescence intensity)); higher = stronger DNA binding).
Method in brief: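 Binding intensity is defined as the maximum Masliner-normalised natural-log median intensity across replicate spots for either probe orientation. It was measured on an Agilent 4 × 180k array of primer-extended double-stranded 36-bp intergenic genomic probes and negative controls, to which GST-tagged P. falciparum DNA-binding domains made in E. coli were applied for 1 h in 1× PBS with 1% milk, 0.2 mg/ml BSA, 0.5% salmon testes DNA and 0.03% Triton X-100. Detection was by Alexa488 anti-GST antibody and scanning at 488 nm.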

| Sequence | gcPBM binding intensity (ln) |
| --- | --- |
| TTATCTATAAATACGAGTACGCAAAATCATATAATA [XGTACX_site2447] | 8.71 ± 0.32 |
| ATTTACGCGCTTATTACACACACATACAAATAAGGA [CACACA_site9157] | 9.34 ± 0.3 |
| TTTTAATATTAAGATGTCTTTTACGTTTATTTTGTA [CACACA_negctrl_site765] | 8.68 ± 0.52 |
| TAATTATTTGCCCTTACTCTGAACATTCGGAATTTA [CACACA_negctrl_site1278] | 8.63 ± 0.47 |
| ATCTGCATATATATATGTACATATTTTAGAATGCAC [XGTACX_site708] | 8.87 ± 0.34 |
| TTCTTTTTAAATTACACACACATATAAATATGTATA [CACACA_site7618] | 9.13 ± 0.37 |
| TTTTTATAAAATTTTATGAGCTCGGAAAAAATAAAC [GTGCAC_negctrl_site637] | 8.38 ± 0.45 |
| TATATATAATATATATATATGGAAATTCTTTTAAAT [XGTACX_negctrl_site50] | 8.41 ± 0.38 |
| TGTATTATATGTAAATGTACATTTAATATTTTATAT [XGTACX_site4461] | 8.79 ± 0.45 |
| GTATGAAATTATAATAGTACATATAAATAAAAAAAA [XGTACX_site8955] | 8.86 ± 0.54 |
| CCACAAGTATATAGTAGTACAATTTTTTTCTCTTTA [XGTACX_site4403] | 8.58 ± 0.47 |
| ATATAAGGATAACCTAGTACATATTATATGAAACAA [XGTACX_site8459] | 8.92 ± 0.45 |
| TACGGTAAATAGTGTTGTACGATACAATTGTTTTCT [XGTACX_site8118] | 8.9 ± 0.3 |
| AAAATAAATAAATAAATATATATATATATATATATA [TGCATGCA_negctrl_site558] | 9.46 ± 0.26 |
| CAATTAAAATGCAACGGTACACATAAAAAAAATAAA [XGTACX_site6216] | 9.04 ± 0.52 |
| AAGGGGAAAAAAAAAAGTACACAAACATAGGATAAT [XGTACX_site377] | 8.99 ± 0.56 |
| TATATATATATATATGTGCGCATTACTTTAAGAATA | 9.6 ± 0.25 |
| TTACAAATAATTTGTTGTACGCTTTTTTTCTTTTTT [XGTACX_site7199] | 8.79 ± 0.57 |
| GTTAAAAAAAGGAGAGATCTCACACAAATATATATA [GTGCAC_negctrl_site117] | 8.83 ± 0.44 |
| CATTTAATAATAACAAGTACACAAAGATGTATAACA [XGTACX_site8315] | 8.83 ± 0.49 |
| ATGATAAATATAAGTTGTACATATATCTATGTGCAT [XGTACX_site6010] | 8.8 ± 0.39 |
| CATAAATACTATATATGTACGTAATTTTTAAAACAT [XGTACX_site7710] | 8.78 ± 0.48 |
| AATATATATGAAAAAAGTACTCAAGGAATAAAAAAA [XGTACX_site7720] | 8.82 ± 0.52 |
| GGGTGCCAAATTAGCACACACATATATACCTGAATT [CACACA_site5551] | 9.38 ± 0.47 |
